Data reported in the RNAGym collection of RNA variant scans (doi:10.1093/nar/gkz1192).
Read counts are not given, so values of variants with three or more changes are uncertain.

B1: CPEB3 Ribozyme (parent)
chain: UAACAGGGGGCCACAGCAGAAGCGUUCACGUCGCAGCCCCUGUCAGAUUCUGGUGAAUCUGCGAAUUCUGCUGUAUAUCUC

Variants of: B1
Assay: self-cleavage, relative activity (ratio to wild type); higher = more cleavage; in vitro, sequencing
In short: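 Relative activity was defined as the cleaved/total read fraction for a variant divided by the same fraction for the unmutated ribozyme. CPEB3 self-cleaving ribozyme libraries were made by rounds of error-prone PCR, barcoded, and transcribed in vitro with T7 RNA polymerase for 5 hours at 37°C, and cleavage ran through transcription plus a 15 min DNase I step before EDTA. Illumina sequencing of template-switched reverse transcripts gave the reads, and DNA sequencing mapped the barcodes. Averages come from three batches, using variants with at least 5 reads.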
In the case of G9U U72C A77C, the self-cleavage is reported as 0.07. Work on G10A U31C A45G A57G yielded a self-cleavage of 0.13. G9U U43A U78C showed a self-cleavage of 0.05. In the case of G10A G19A G30A U78C, the self-cleavage is reported as 0.14. Work on G10A C37A C39G C62G yielded a self-cleavage of 0.05. In the case of G10A A21G C38U A56G, the self-cleavage is reported as 0.11. In the case of G10A U25C C34A C38U C40U U54C, the self-cleavage is reported as 1.16. With G10A A13G A18G A45G U60C the self-cleavage was 0.08. G10C U60A U72G U76C showed a self-cleavage of 0.08. For G10C U54C U76C U80C, the self-cleavage was 0.19. Variant G10A A18G A35U U49A A64G has a self-cleavage of 0.04. G10A A21U U49G gave a self-cleavage of 0.06. Variant G10A A20G U43C has a self-cleavage of 0.08. In the case of G10U A15G U25C A35U A57G, the self-cleavage is reported as 0.28. Variant G10A C11G U49A G52A has a self-cleavage of 0.07. Variant G10C G16A U41C U48A has a self-cleavage of 0.07. With G10A C17G A18G A57C U72C the self-cleavage was 0.04. Work on G10A A35U A77G yielded a self-cleavage of 0.24. G10C U58C U72C showed a self-cleavage of 0.16. G10A A13U U43C showed a self-cleavage of 0.25. In the case of G10A A15U A45G A57G, the self-cleavage is reported as 0.04. G10A A56U U69G showed a self-cleavage of 0.04. With G10A A21G C23A A35U the self-cleavage was 0.47. Variant G10A A18G C44U has a self-cleavage of 0.2. For G10C A28G U43A U48C A56G C81A, the self-cleavage was 0.15. Work on G10A A21G U49A U60A U69C yielded a self-cleavage of 0.09. Variant G10A A21G U51C G61C has a self-cleavage of 0.13. G10A C11G U25A U43G U60C gave a self-cleavage of 0.13. With G10A C34U U69A the self-cleavage was 0.05. In the case of G10A C11A U74A U80C, the self-cleavage is reported as 0.1. Variant G10A A28G U41C A64G U67C has a self-cleavage of 0.04. In the case of G10A A47G U72A, the self-cleavage is reported as 0.39. For G10A U43C A57G, the self-cleavage was 0.36. In the case of G9U U31C A75U, the self-cleavage is reported as 0.05. With G10A U58C C62G U66C U72C U78C the self-cleavage was 0.06. Work on G10A A13G U41C G70A yielded a self-cleavage of 0.32. Work on G10A A18G U43C U54G U69A yielded a self-cleavage of 0.06. With G10A U26A U43A U54C C71A the self-cleavage was 0.03. Variant G10A U67C U69A has a self-cleavage of 0.1. In the case of G10C A20G U25C U41C U48C, the self-cleavage is reported as 0.21. Work on G10C U26C U67C yielded a self-cleavage of 0.12. With G10A U25C A57U the self-cleavage was 0.27. Work on G10A C11G C34A A45U U51C yielded a self-cleavage of 0.06. G9U U25C A65G U72C gave a self-cleavage of 0.17. Variant G10U A15G A45U has a self-cleavage of 0.08. For G9U U51G U67C, the self-cleavage was 0.13. In the case of G10A A13U U31C U76G, the self-cleavage is reported as 0.24. Variant G10A A20G U58A has a self-cleavage of 0.04. For G10C A21G U49C A57U A64G U69A, the self-cleavage was 0.08. Variant G9U U25C C71G has a self-cleavage of 0.09. Work on G10A A56U U67C U72A yielded a self-cleavage of 0.06. With G10C A13G C23G U41A A75G the self-cleavage was 0.05. Work on G10A A21G A28U A64U U69A U78C yielded a self-cleavage of 0.04. Variant G10A U43C A64U U72C has a self-cleavage of 0.06. Variant G10A A15G U31G A64U has a self-cleavage of 0.05. With G10C A18U U26C U66A the self-cleavage was 0.06. G10A U25C G33U U72G U80C showed a self-cleavage of 0.04. Work on G10A U49C U69C yielded a self-cleavage of 0.34. Variant G10A G24U U72C has a self-cleavage of 0.12. Work on G10A U31C U43G A64G yielded a self-cleavage of 0.04. With G10C C17U U41C U80C the self-cleavage was 0.1. Variant G10C U74C U80C has a self-cleavage of 0.27. With G10A U26A U48C U69A the self-cleavage was 0.04. For G10A C14G G70U, the self-cleavage was 0.24. For G10A U51C G61A, the self-cleavage was 0.13. For G10A A28G U31C U48C U69C U74C, the self-cleavage was 0.05. Work on G10A A15G A56G U58C yielded a self-cleavage of 0.07. With G10C U66C U72A the self-cleavage was 0.15. G10A A15U G24A U41A A57U A64U U72C gave a self-cleavage of 0.05. Work on G10C U25A A57G yielded a self-cleavage of 0.09. G10C U51C U72A U80C showed a self-cleavage of 0.07. G10A A15G A57U U74C U80A showed a self-cleavage of 0.27. G10C C14G A20G U51A G52U A56G showed a self-cleavage of 0.22. G10A A18G U41A U54C showed a self-cleavage of 0.11. For G10A A20U A56G A65C, the self-cleavage was 0.03. Variant G10A A18G U54C U78A U80A has a self-cleavage of 0.32. Work on G10C A15C A20G U26C G63A U76G yielded a self-cleavage of 0.61. With G10A A28G A64U U74C the self-cleavage was 0.18. In the case of G10C A21G C29G A35G, the self-cleavage is reported as 0.05. Work on G10A A28U U67C U76C A77U yielded a self-cleavage of 0.02. For G9U U51C A57G, the self-cleavage was 0.27. Variant G10A A18U U41A U58C has a self-cleavage of 0.1. G10A U60C U67C U80A showed a self-cleavage of 0.07. For G9U U26A A65G, the self-cleavage was 0.05.
